{
  "source": "PubChem BioAssay AID624296",
  "about": "(National Center for Advancing Translational Sciences (NCATS), 2012)",
  "note": "In all, about 350,000 compounds went through this assay and about 9,900 (2.8%) were called active. Inconclusive means that the source gave no clear call. Such entries were picked first, then a sample of the others. Calls follow the shape of the dose curve; as a rule, active = well fitted activation curve with a large enough effect; inconclusive = small, poorly fitted or top-dose-only effect; inactive = no such curve, though single readings can be large or run the other way. No potency is given beside an inconclusive call; the fits are too rough. Potency is read from the fitted curve at half-maximal effect; tags tell the direction and shape of the fitted curve.",
  "data": [
    {"assay": "A quantitative high throughput screen for small molecules that induce DNA re-replication in MCF 10a normal breast cells; also: nearly all actives have a fitted effect of over 50% in size; as to activity, positive = re-replication: % of control where 0% means no effect.", "details": "MCF 10A DNA re-replication, Hoechst nuclear intensity, 48 h; activity, positive = re-replication: at 46.1 µM (top of the series)", "values": [
      {"smiles": "O=C(c1cc(COc2ccc(F)cc2Cl)on1)N1CC[C@@H]2CCCC[C@H]2C1", "Potency": "inconclusive [activator, single point]"},
      {"smiles": "CCc1ccc(Nc2nnc(SCC(=O)Nc3cccc(S(=O)(=O)NC4=NCCCCC4)c3)s2)cc1", "Potency": "inconclusive [activator, partial curve, poor fit]"},
      {"smiles": "Nc1ccc(N=Nc2ccccc2)c(N)n1", "Potency": "inactive"},
      {"smiles": "Cc1ccc([N+](=O)[O-])cc1S(=O)(=O)Nc1cccc(-c2ccc(N3CCCC3)nn2)c1", "Potency": "inconclusive [activator, full curve, poor fit]"},
      {"smiles": "CN(c1ccccc1C(=O)Nc1ccc(S(=O)(=O)N2CCCC2)cc1)S(C)(=O)=O", "activity, positive = re-replication": "inactive: 4.09%"},
      {"smiles": "O=C(Nc1ccc(S(=O)(=O)N2CCOCC2)cc1)c1ccc([N+](=O)[O-])o1", "Potency": "inconclusive [activator, partial curve, poor fit]"},
      {"smiles": "Cc1cccc2sc(N(CCCN(C)C)C(=O)CCS(=O)(=O)c3ccccc3)nc12", "Potency": "inconclusive [activator, full curve, poor fit]"},
      {"smiles": "COc1ccc(-c2nc(-c3ccc(Br)cc3)no2)c(OC)c1", "Potency": "inconclusive [activator, single point]"},
      {"smiles": "CCNc1ccc(C(=O)OCC)cc1NC(=O)c1cccc(S(=O)(=O)N2CCOCC2)c1", "Potency": "inconclusive [activator, single point]"},
      {"smiles": "Cc1ccc(-n2c(SCC(=O)c3c(N)n(C4CC4)c(=O)[nH]c3=O)nnc2N2CCOCC2)cc1", "Potency": "inconclusive [activator, single point]"},
      {"smiles": "O=c1[nH]c(CN2CCN(c3ccccc3Cl)CC2)nc2ccsc12", "activity, positive = re-replication": "inactive: 4.05%"},
      {"smiles": "COc1ccc(COC(=O)NNC(=O)c2ccccc2Cl)cc1", "Potency": "inconclusive [activator, partial curve, poor fit]"},
      {"smiles": "Cc1nc2cc(C(F)(F)F)ccc2n1C1CCN(CC(=O)N2CCCC2)CC1", "Potency": "inconclusive [activator, single point]"},
      {"smiles": "Cc1cc(C)n2nc(SCC(=O)N/N=C/c3cccc(Br)c3)nc2n1", "Potency": "inconclusive [activator, single point]"},
      {"smiles": "CCCOc1ccc(C(=O)Nc2ccc(S(=O)(=O)Nc3cc(C)nc(C)n3)cc2)cc1", "activity, positive = re-replication": "inactive: 3.29%"},
      {"smiles": "Cc1ccc(C(=O)Nc2ccc(N3CCOCC3)nc2N2CCOCC2)cc1", "Potency": "inconclusive [activator, partial curve, poor fit]"},
      {"smiles": "COc1ccc(-n2cc(C#N)c(=O)n(Cc3ccc(F)cc3)c2=O)cc1", "Potency": "inconclusive [activator, full curve, poor fit]"},
      {"smiles": "Cc1cccc(NC(=O)C2C3CCCCC32)c1", "note": "(stereo unspecified)", "Potency": "inconclusive [activator, single point]"},
      {"smiles": "O=S(=O)(c1ccc(F)cc1)c1nc(-c2ccccc2)oc1N1CCOCC1", "activity, positive = re-replication": "inactive: -2.11%"},
      {"smiles": "CCCCOc1ccc(NC2=NC3(CCCCC3)N=C(N)N2)cc1", "Potency": "inconclusive [activator, partial curve, poor fit]"},
      {"smiles": "COc1ccc(CCNC(=O)CN2CCN(c3cccc(C(F)(F)F)c3)CC2)cc1", "activity, positive = re-replication": "inactive: 5.87%"},
      {"smiles": "Cc1ncc(CN=Cc2ccc(Cl)cc2)c(N)n1", "activity, positive = re-replication": "inactive: 0.198%"},
      {"smiles": "CCC(CO)Oc1cc(NCc2cc(C)cc(C)c2)c2ncn(C(C)C)c2c1", "note": "(stereo unspecified)", "activity, positive = re-replication": "inactive: 1.53%"},
      {"smiles": "COCCCNC(=O)c1ccccc1Oc1ccccc1", "activity, positive = re-replication": "inactive: 0.387%"},
      {"smiles": "CCC(OC(C)=O)c1cc2c(cc1[N+](=O)[O-])OCCO2", "note": "(stereo unspecified)", "activity, positive = re-replication": "inactive: -2.93%"},
      {"smiles": "CC(=O)c1ccc(S(=O)(=O)Nc2c(C)nn(C)c2C)cc1", "activity, positive = re-replication": "inactive: 7.79%"},
      {"smiles": "CCCCc1c(C)nc2ccc(Br)cc2c1SC(N)N", "activity, positive = re-replication": "inactive: -2.04%"},
      {"smiles": "CCOc1ccccc1N(C(=O)c1snc(C(N)=O)c1N)C(CC)C(=O)NC1CCCC1", "note": "(stereo unspecified)", "activity, positive = re-replication": "inactive: 2.02%"},
      {"smiles": "CCC(C)c1ccccc1NC(=O)CN(C)CCOc1ccc(Cl)cc1", "note": "(stereo unspecified)", "Potency": "inconclusive [activator, single point]"},
      {"smiles": "C/C=C/C(=O)N[C@@H]1c2ccccc2CC[C@@H]1OCc1ccccc1", "activity, positive = re-replication": "inactive: 14.2%"},
      {"smiles": "CCN1C(=O)c2cccc3c(S(=O)(=O)NCc4ccccc4)ccc1c23", "Potency": "active: 16.4 µM"},
      {"smiles": "CCOC(=O)c1sc2nc(CSc3ccccc3Cl)[nH]c(=O)c2c1C", "Potency": "inconclusive [activator, full curve]"},
      {"smiles": "COc1ccc(C(CNS(=O)(=O)c2cccc(F)c2)N2CCCC2)cc1", "note": "(stereo unspecified)", "activity, positive = re-replication": "inactive: 3.18%"},
      {"smiles": "O=C(N/N=C/c1ccoc1)c1ccccc1F", "activity, positive = re-replication": "inactive: -2.75%"},
      {"smiles": "NC(=O)C1CCCN(C(=O)NC2CCCCC2)C1", "note": "(stereo unspecified)", "activity, positive = re-replication": "inactive: 0.81%"},
      {"smiles": "COC(=O)CC1C(=O)NCCN1C(=S)Nc1cccc(C)c1", "note": "(stereo unspecified)", "Potency": "inconclusive [activator, single point]"},
      {"smiles": "O=C(Cc1cccc2ccccc12)Nc1ccc2oc(-c3ccccc3)nc2c1", "activity, positive = re-replication": "inactive: 15.5%"},
      {"smiles": "CCOc1ccc(NS(=O)(=O)c2cc(NC(=O)c3cccc(C)c3)ccc2Cl)cc1", "Potency": "inconclusive [activator, partial curve, poor fit]"},
      {"smiles": "Cc1c(Cc2ccccc2)c(=O)oc2cc(OCC(=O)NCc3ccccn3)ccc12", "activity, positive = re-replication": "inactive: -0.163%"},
      {"smiles": "CC(Cc1ccccc1)NC(=O)CSc1nc2nc3c(cc2c(=O)n1-c1ccccc1)COC(C)(C)C3", "note": "(stereo unspecified)", "Potency": "inconclusive [activator, partial curve, poor fit]"},
      {"smiles": "Cc1ccc(C(=O)CCNc2ccc(Cl)cc2)o1", "Potency": "inconclusive [activator, single point]"},
      {"smiles": "CCCCOC(=O)NC1CCS(=O)(=O)C1", "note": "(stereo unspecified)", "activity, positive = re-replication": "inactive: -1.01%"},
      {"smiles": "CN(C=O)c1cc([N+](=O)[O-])ccc1OCc1ccccc1", "Potency": "inconclusive [activator, full curve, poor fit]"},
      {"smiles": "Cc1ccc(C(=O)c2ccccc2C(=O)OCC(=O)N2C(C)CCCC2C)cc1", "note": "(stereo unspecified)", "Potency": "inconclusive [activator, partial curve, poor fit]"},
      {"smiles": "O=C(Nc1c(Br)cc2c(c1Br)Cc1cc([N+](=O)[O-])ccc1-2)C(Cl)Cl", "Potency": "inconclusive [activator, single point]"},
      {"smiles": "O=C(NC(Cc1ccccc1)C(=O)OCC(=O)N1CCc2ccccc21)c1ccco1", "note": "(stereo unspecified)", "activity, positive = re-replication": "inactive: -5.77%"},
      {"smiles": "Cc1cc(C)n(CCc2nc(-c3ccc(C)o3)cs2)n1", "activity, positive = re-replication": "inactive: 25.6%"},
      {"smiles": "Nc1nc2ncc(-c3ccsc3)c(N)n2n1", "activity, positive = re-replication": "inactive: 7.53%"},
      {"smiles": "Fc1cc(Br)ccc1NC(=S)Nc1ccccc1", "Potency": "inconclusive [activator, single point]"},
      {"smiles": "COc1ccc(NC(=O)CSc2nnnn2C2CC3C=CC2C3)cc1", "note": "(stereo unspecified)", "activity, positive = re-replication": "inactive: -45.6%"},
      {"smiles": "CCC[C@@H](CN1CCC[C@H]1CN1C(N)=NC[C@H]1CC(C)C)N1C[C@@H]([C@H](C)CC)N(CCCC2CCCC2)C1=N", "activity, positive = re-replication": "inactive: -35.2%"},
      {"smiles": "C=CC(=O)NC(NC(=O)C=C)c1ccc(Br)cc1", "Potency": "inconclusive [activator, single point]"},
      {"smiles": "COc1ccc(OCCCC(=O)Nc2ccc3c(c2)OCCO3)cc1", "Potency": "active: 20.6 µM"},
      {"smiles": "c1ccc(Cn2nnnc2C(c2cccnc2)N2CCN(C3CCCCC3)CC2)cc1", "note": "(stereo unspecified)", "Potency": "inconclusive [activator, partial curve]"},
      {"smiles": "COc1ccc(OC)c(C(=O)CN2CCN(S(=O)(=O)c3ccc(Br)cc3)CC2)c1", "Potency": "active: 23.1 µM"},
      {"smiles": "CCOC(=O)C1=CN(Cc2cccc(F)c2)S(=O)(=O)NC1c1ccc2ccccc2c1", "note": "(stereo unspecified)", "Potency": "inconclusive [activator, single point]"},
      {"smiles": "Cc1ccc(S(=O)(=O)N2CCC(=O)N(C(COCc3cccc(Cl)c3)Cc3ccccc3)CC2)cc1", "note": "(stereo unspecified)", "Potency": "inconclusive [activator, single point]"},
      {"smiles": "O=c1c(C=NCc2cccnc2)c(C(F)(F)F)[nH]n1-c1nc2ccccc2s1", "activity, positive = re-replication": "inactive: 4.49%"},
      {"smiles": "CCCCCCCOc1ccc(C2(C)NC(=O)NC2=O)cc1", "note": "(stereo unspecified)", "Potency": "inconclusive [activator, partial curve, poor fit]"},
      {"smiles": "Cc1ccc(S(=O)(=O)C(C#N)c2nc3ccccc3nc2N2CCN(C)CC2)cc1", "note": "(stereo unspecified)", "Potency": "inconclusive [activator, single point]"},
      {"smiles": "Cc1ccc(NS(=O)(=O)c2ccc(NS(=O)(=O)c3cccs3)cc2)cc1", "Potency": "inconclusive [activator, single point]"},
      {"smiles": "O=c1cc(-c2ccsc2)oc2cc(-c3ccc4c(c3)OCO4)ccc12", "Potency": "inconclusive [activator, single point]"},
      {"smiles": "CC1C(c2ccc3c(c2)OCO3)c2cc3c(cc2OC1N1CCOCC1)OCO3", "note": "(stereo unspecified)", "Potency": "inconclusive [activator, single point]"},
      {"smiles": "COc1ccc(-n2cc(-c3ccc(OC)c(OC)c3)[nH]c2=S)cc1", "activity, positive = re-replication": "inactive: -0.777%"},
      {"smiles": "O=C(CNC(=O)[C@@H]1Cc2ccccc2CN1)Nc1ccc2c(c1)OCO2", "Potency": "inconclusive [activator, partial curve, poor fit]"},
      {"smiles": "COc1ccc(C)cc1Nc1nc(C)nc2sc(C)cc12", "Potency": "inconclusive [activator, single point]"},
      {"smiles": "CCCN(CCC)C(=O)C1CCCN1S(=O)(=O)c1cccc2nsnc12", "note": "(stereo unspecified)", "Potency": "inconclusive [activator, single point]"},
      {"smiles": "COc1ccc(CCNC(=O)C2CCN(S(C)(=O)=O)CC2)cc1", "Potency": "inconclusive [activator, partial curve, poor fit]"},
      {"smiles": "Cc1[nH][nH]c(=O)c1C(c1c(C)[nH][nH]c1=O)c1cn(Cc2cccc3ccccc23)c2ccccc12", "Potency": "inconclusive [activator, single point]"},
      {"smiles": "CC(C)(C)c1ccc(-c2cc(C(=O)NNC(=O)Nc3ccccc3)c3ccccc3n2)cc1", "Potency": "inconclusive [activator, partial curve, poor fit]"},
      {"smiles": "O=C(NCc1cccc(Br)c1)C1CC(c2ccccc2C(F)(F)F)=NO1", "note": "(stereo unspecified)", "Potency": "inconclusive [activator, single point]"}
    ]}
  ]
}
